Measured values: the supplement of paper PMC12582362
Where a name gives a salt, the structure may show the parent alone. Out of some 1,500 compounds screened, about 30 (2%) showed activity.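 How the source made its calls: active = robust z-score below -2; a few such results were not called.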 The list shows a part of the results.

test system: optoTopBP1 Flp-In 293 T-REx (HEK293) cells; experiment: light-induced TopBP1 condensate (nuclear foci) count, plate-normalised robust z-score vs non-control wells; higher = more TopBP1 condensates (negative = condensation inhibitor), active = hit call of the paper; settings: 10 µM; incubation time 2 h

| SMILES | light-induced TopBP1 condensate (z-score) |
| --- | --- |
| CC(=O)N1CCN(c2ccc(OCC3COC(Cn4ccnc4)(c4ccc(Cl)cc4Cl)O3)cc2)CC1 (configuration not stated) [Ketoconazole] | inactive: 0.453 |
| CN(CCOc1ccc(NS(C)(=O)=O)cc1)CCc1ccc(NS(C)(=O)=O)cc1 [Dofetilide] | inactive: -1.07 |
| CCN(CC)CCOC(=O)C1(c2ccc([N+](=O)[O-])cc2)CCCC1 [Nitrocaramiphen hydrochloride] | inactive: 0.714 |
| Nc1ccc(O)c(C(=O)O)c1 [Mesalamine] | inactive: -0.121 |
| Cc1cc(NC(=O)C2=C(O)c3ccccc3S(=O)(=O)N2C)no1 [Isoxicam] | inactive: 0.298 |
| Cc1cc(C(C)(C)CC(C)(C)C)ccc1OCCOCC[N+](C)(C)Cc1ccccc1 [Methyl benzethonium chloride] | inactive: -0.593 |
| CO[C@@]1(NC(=O)C2SC(=C(C(N)=O)C(=O)O)S2)C(=O)N2C(C(=O)O)=C(CSc3nnnn3C)CS[C@@H]21 (some centres not stated) [Cefotetan] | inactive: 0.425 |
| CN(C)CCCN1c2ccccc2CCc2ccc(Cl)cc21 [Clomipramine hydrochloride] | inactive: -1.47 |
| C#C[C@]1(OC(C)=O)CC[C@H]2[C@@H]3CCC4=C[C@@H](OC(C)=O)CC[C@@H]4[C@H]3CC[C@@]21C [Ethynodiol diacetate] | inactive: -0.982 |
| Nc1ccc(S(=O)(=O)Nc2ncccn2)cc1 [Sulfadiazine] | inactive: 0.227 |
| CO[C@@]1(NC(=O)C(C(=O)O)c2ccc(O)cc2)C(=O)N2C(C(=O)O)=C(CSc3nnnn3C)CO[C@@H]21 (some centres not stated) [Moxalactam disodium salt] | inactive: 0.553 |
| C#C[C@]1(O)CC[C@H]2[C@@H]3CCC4=CC(=O)CC[C@@H]4[C@H]3CC[C@@]21C [Norethindrone] | inactive: 0.453 |
| O=C(O)CNC(=O)c1ccccc1 [Hippuric acid] | inactive: 0.739 |
| CC(=O)O[C@]1(C(C)=O)CC[C@H]2[C@@H]3C=C(C)C4=CC(=O)CC[C@@H]4[C@H]3CC[C@@]21C [Nomegestrol acetate] | inactive: -0.776 |
| NS(=O)(=O)c1cc2c(cc1Cl)N=C(CSCc1ccccc1)NS2(=O)=O [Benzthiazide] | inactive: -0.0882 |
| O=C1C(CC[S+]([O-])c2ccccc2)C(=O)N(c2ccccc2)N1c1ccccc1 (configuration not stated) [Sulfinpyrazone] | inactive: -0.953 |
| CC(=O)Oc1cc(C(F)(F)F)ccc1C(=O)O [Triflusal] | inactive: 0.263 |
| CC(=O)Oc1c(C)cccc1C(=O)O [Cresopirine] | inactive: -0.352 |
| N=c1ccn2c(n1)O[C@H]1[C@H](O)[C@@H](CO)O[C@H]12 [Ancitabine hydrochloride] | active: -2.02 |
| C[C@]12C=CC(=O)C=C1CC[C@@H]1[C@@H]2[C@@H](O)C[C@@]2(C)[C@H]1CC[C@]2(O)C(=O)CO [Prednisolone] | inactive: -0.095 |
| O=c1[nH]cc(F)c(=O)[nH]1 [5-fluorouracil] | inactive: 0.202 |

| SMILES | light-induced TopBP1 condensate (z-score) |
| --- | --- |
| CS(=O)(=O)c1ccc([C@@H](O)[C@@H](CO)NC(=O)C(Cl)Cl)cc1 [Thiamphenicol] | inactive: 0.239 |
| CO/N=C(\C(=O)N[C@@H]1C(=O)N2C(C(=O)[O-])=C(C[n+]3ccn4ncccc43)CS[C@H]12)c1nsc(N)n1 [Cefozopran hydrochloride] | inactive: 0.96 |
| CC(C)Cc1ccc([C@H](C)C(=O)O)cc1 [S-(+)-ibuprofen] | inactive: -0.831 |
| O=C(O)Cc1ccccc1Nc1c(Cl)cccc1Cl [Diclofenac sodium] | inactive: 0.131 |
| CN1CCN(CCCN2c3ccccc3Sc3ccc(S(=O)(=O)N(C)C)cc32)CC1 [Thioproperazine dimesylate] | inactive: -0.78 |
| NCCCC[C@H](N[C@@H](CCc1ccccc1)C(=O)O)C(=O)N1CCC[C@H]1C(=O)O [Lisinopril] | inactive: -0.737 |
| CC(C)(C)NC[C@H](O)COc1nsnc1N1CCOCC1 [Timolol maleate salt] | inactive: -0.601 |
| O=C(Nc1cccc2c(=O)cc(-c3nnn[nH]3)oc12)c1ccc(OCCCCc2ccccc2)cc1 [Pranlukast] | inactive: 1.54 |
| CCOC(=O)[C@H](CCc1ccccc1)N[C@H]1CCc2ccccc2N(CC(=O)O)C1=O [Benazepril hydrochloride] | inactive: -1.21 |
| COC1=C(OC)C(=O)C(CCCCCCCCCCO)=C(C)C1=O [Idebenone] | inactive: -0.505 |
| CCOC(=O)OC(C)OC(=O)[C@@H]1N2C(=O)[C@@H](NC(=O)[C@H](N)c3ccccc3)[C@H]2SC1(C)C (some centres not stated) [Bacampicillin hydrochloride] | inactive: 1.02 |
| CC(COc1ccccc1)N(CCCl)Cc1ccccc1 (configuration not stated) [Phenoxybenzamine hydrochloride] | inactive: -1.33 |
| CCCNC(C)C(=O)Nc1ccccc1C (configuration not stated) [Prilocaine hydrochloride] | inactive: 0.739 |
| COc1ccc(CN(CCN(C)C)c2ccccn2)cc1 [Pyrilamine maleate] | inactive: -1.49 |
| COc1cc(/C=C/C(=O)N2CCN(CC(=O)N3CCCC3)CC2)cc(OC)c1OC [Cinepazide maleate] | inactive: -0.187 |
| CC(=O)c1ccc(S(=O)(=O)NC(=O)NC2CCCCC2)cc1 [Acetohexamide] | inactive: 0.743 |
| C[C@H](CCc1ccccc1)NC[C@H](O)c1ccc(O)c(C(N)=O)c1 [Dilevalol] | inactive: -0.185 |
| CCCCC[C@H](O)/C=C/[C@@H]1[C@@H](C/C=C\CCCC(=O)O)[C@@H](O)C[C@H]1O [Dinoprost trometamol] | inactive: -0.134 |
| CCOC(=O)c1ccc(OC(=O)CCCCCNC(=N)N)cc1 [Gabexate mesilate] | inactive: 0.917 |
| O=C(NC1CCN(CCCCC2(C(=O)NCC(F)(F)F)c3ccccc3-c3ccccc32)CC1)c1ccccc1-c1ccc(C(F)(F)F)cc1 [Lomitapide] | inactive: -1.14 |
| CCCN[C@H]1CCc2nc(N)sc2C1 [Pramipexole dihydrochloride] | inactive: 0.0332 |

| SMILES | light-induced TopBP1 condensate (z-score) |
| --- | --- |
| Cc1cc(=O)oc2cc(O)ccc12 [Hymecromone] | inactive: 0.0278 |
| CN(C)CCCN1c2ccccc2[S+]([O-])c2ccc(Cl)cc21 (configuration not stated) [Chlorpromazine Sulfoxide] | inactive: -1.17 |
| Cc1nc2ccccc2n1Cc1ccc(Cl)cc1 [Chlormidazole] | inactive: -0.19 |
| Cn1c(=O)c2nc[nH]c2n(C)c1=O [Theophylline monohydrate] | inactive: -0.814 |
| c1ccc(C2CN3CCSC3=N2)cc1 (configuration not stated) [Tetramisole hydrochloride] | inactive: 0.0229 |
| C=C1c2cccc(O)c2C(=O)C2=C(O)[C@]3(O)C(=O)C(C(N)=O)=C(O)[C@@H](N(C)C)[C@@H]3[C@@H](O)[C@H]12 [Methacycline hydrochloride] | inactive: -0.118 |
| Cc1scc2c1N(C(=O)CN1CCN(C)CC1)c1ccccc1NC2=O [Telenzepine dihydrochloride] | inactive: -0.968 |
| CO[C@H]1/C=C/O[C@@]2(C)Oc3c(C)c(O)c4c(c3C2=O)C2=NC3(CCN(CC(C)C)CC3)NC2=C(NC(=O)/C(C)=C\C=C\[C@H](C)[C@H](O)[C@@H](C)[C@@H](O)[C@@H](C)[C@H](OC(C)=O)[C@@H]1C)C4=O [Rifabutin] | inactive: -0.0256 |
| O=C(O)Cc1csc(-c2ccc(Cl)cc2)n1 [Fenclozic acid] | inactive: 0.196 |
| O=C(Cn1ccnc1[N+](=O)[O-])NCCO [Etanidazole] | inactive: 0.76 |
| CN(C)CCN(Cc1cccs1)c1ccccn1 [Methapyrilene hydrochloride] | inactive: 0.726 |
| COc1c(O[C@@H]2O[C@H](CO)[C@@H](O)[C@H](O)[C@H]2O)cc2c(c1OC)-c1ccc(SC)c(=O)cc1[C@@H](NC(C)=O)CC2 [Thiocolchicoside] | inactive: -0.423 |
| CO[C@@H]1[C@@H](O[C@@H]2O[C@H](C)[C@@H](O[C@H]3C[C@@](C)(O)[C@@H](O)[C@H](C)O3)[C@H](N(C)C)[C@H]2O)[C@@H](CC=O)C[C@@H](C)[C@@H](O[C@H]2CC[C@H](N(C)C)[C@@H](C)O2)/C=C/C=C/C[C@@H](C)OC(=O)C[C@H]1OC(C)=O [Acetyl spiramycin] | inactive: -0.0623 |
| Clc1ccc(C(Cn2ccnc2)OCc2c(Cl)cccc2Cl)c(Cl)c1 (configuration not stated) [Isoconazole] | inactive: 0.803 |
| NC(=O)N1c2ccccc2C=Cc2ccccc21 [Carbamazepine] | inactive: 1.16 |
| Nc1nc(F)nc2c1ncn2[C@@H]1O[C@H](CO)[C@@H](O)[C@@H]1O [Fludarabine] | inactive: -0.365 |
| CC[C@H]1OC(=O)[C@H](C)[C@@H](O[C@H]2C[C@@](C)(OC)[C@@H](O)[C@H](C)O2)[C@H](C)[C@@H](O[C@@H]2O[C@H](C)C[C@H](N(C)C)[C@H]2O)[C@](C)(O)C[C@@H](C)/C(=N\OCOCCOC)[C@H](C)[C@@H](O)[C@]1(C)O [Roxithromycin] | inactive: 0.222 |
| Nc1nc(=O)c2nc(CNc3ccc(C(=O)N[C@@H](CCC(=O)O)C(=O)O)cc3)cnc2[nH]1 [Folic acid] | inactive: -0.903 |
| CC(=O)N[C@@H](CC(C)C)C(=O)O [N-Acetyl-L-leucine] | inactive: -0.0363 |
| CC(C)C(=O)OCC(=O)[C@@]12O[C@H](C3CCCCC3)O[C@@H]1C[C@H]1[C@@H]3CCC4=CC(=O)C=C[C@]4(C)[C@H]3[C@@H](O)C[C@@]12C [Ciclesonide] | inactive: 0.538 |
